# In a collection of fitness landscapes (doi:10.1126/science.1257360):
# Some of the results follow.
# B1: PhoQ; a variant is named by its letters at X, in order, P23837 (parent)
# chain: MKKLLRLFFPLSLRVRFLLATAAVVLVLSLAYGMVALIGYSVSFDKTTFRLLRGESNLFYTLAKWENNKLHVELPENIDKQSPTMTLIYDENGQLLWAQRDVPWLMKMIQPDWLKSNGFHEIEADVNDTSLLLSGDHSIQQQLQEVREDDDDAEMTHSVAVNVYPATSRMPKLTIVVVDTIPVELKSSYMVWSWFIYVLSANLLLVIPLLWVAAWWSLRPIEALAKEVRELEEHNRELLNPATTRELTSLVRNLNRLLKSERERYDKYRTTLTDLTHSLKTPLXXLQXXLRSLRSEKMSVSDAEPVMLEQISRISQQIGYYLHRASMRGGTLLSRELHPVAPLLDNLTSALNKVYQRKGVNISLDISPEISFVGEQNDFVEVMGNVLDNACKYCLEFVEISARQTDEHLYIVVEDDGPGIPLSKREVIFDRGQRVDTLRPGQGVGLAVAREITEQYEGKIVAGESMLGGARMEVIFGRQHSAPKDE
# Variants of: B1
# Experiment: enrichment ratio after two sorts for PhoP signalling (ratio (wild type AVST 3.29)); higher = more functional
# Settings: with PhoP (E. coli)
row,Variant,enrichment ratio
1,WKVP,≤ 0.25
2,WYWI,≤ 0.25
3,LDRF,≤ 0.25
4,ISMS,≤ 0.25
5,RAEF,≤ 0.25
6,AEYL,6.74
7,GNRY,≤ 0.25
8,GKYD,≤ 0.25
9,SNND,≤ 0.25
10,NHKQ,≤ 0.25
11,SEMT,20
12,WTPS,≤ 0.25
13,QIAM,≤ 0.25
14,DIIV,≤ 0.25
15,WAPR,≤ 0.25
16,QDGW,≤ 0.25
17,KNVD,≤ 0.25
18,VKRF,≤ 0.25
19,FIVN,≤ 0.25
20,CSDG,≤ 0.25
21,SVPW,≤ 0.25
22,IVHM,≤ 0.25
23,FKDL,≤ 0.25
24,RSSA,≤ 0.25
25,LFEH,≤ 0.25
26,DIKD,≤ 0.25

row,Variant,enrichment ratio
1,ENMY,≤ 0.25
2,KYED,≤ 0.25
3,TGWL,10.9
4,PGWR,≤ 0.25
5,NVQK,≤ 0.25
6,LEIG,≤ 0.25
7,RGVV,≤ 0.25
8,MTCK,≤ 0.25
9,HGRR,≤ 0.25
10,INYI,≤ 0.25
11,PMII,≤ 0.25
12,SALY,11.8
13,LYIH,≤ 0.25
14,TCDN,≤ 0.25
15,RTKK,≤ 0.25
16,NMAH,≤ 0.25
17,DLPG,≤ 0.25
18,HIML,≤ 0.25
19,QIWV,≤ 0.25
20,FFNC,≤ 0.25
21,RTCR,≤ 0.25
22,YICY,0.353
23,NFFP,≤ 0.25
24,KDQR,≤ 0.25
25,EQSA,≤ 0.25
26,MRTS,≤ 0.25

row,Variant,enrichment ratio
1,RPHM,≤ 0.25
2,YVSI,≤ 0.25
3,NHRW,≤ 0.25
4,RLEV,≤ 0.25
5,EYWM,≤ 0.25
6,WHFE,≤ 0.25
7,IFGA,≤ 0.25
8,THDY,0.403
9,LMSC,≤ 0.25
10,HMHS,≤ 0.25
11,MPFE,≤ 0.25
12,EVCF,≤ 0.25
13,QALP,≤ 0.25
14,VHMG,≤ 0.25
15,DMLI,≤ 0.25
16,RIEA,≤ 0.25
17,PNHQ,≤ 0.25
18,VTQW,≤ 0.25
19,VNPS,≤ 0.25
20,TLLM,0.473
21,LQRT,≤ 0.25
22,NYSI,≤ 0.25
23,IKTL,≤ 0.25
24,IRYY,≤ 0.25
25,HHEE,≤ 0.25
26,WMSE,≤ 0.25

row,Variant,enrichment ratio
1,SIYN,0.257
2,RCFT,≤ 0.25
3,NQFK,≤ 0.25
4,IVPT,≤ 0.25
5,PREL,≤ 0.25
6,KGHN,≤ 0.25
7,GEAW,≤ 0.25
8,RVNN,≤ 0.25
9,LLMG,≤ 0.25
10,RYDE,≤ 0.25
11,TGPD,≤ 0.25
12,ATQN,≤ 0.25
13,YTTI,≤ 0.25
14,KHEV,≤ 0.25
15,RKDF,≤ 0.25
16,VSSV,5.58
17,PGVM,≤ 0.25
18,IGQF,≤ 0.25
19,WSKF,≤ 0.25
20,SVVK,≤ 0.25
21,MPYM,≤ 0.25
22,GVRE,≤ 0.25
23,ISWW,≤ 0.25
24,GDYP,≤ 0.25
25,RMLC,≤ 0.25
26,SNGT,5.43

row,Variant,enrichment ratio
1,KFHV,≤ 0.25
2,HRTI,≤ 0.25
3,SPPV,≤ 0.25
4,QSYH,2.97
5,NPPA,≤ 0.25
6,FWWC,≤ 0.25
7,KQSL,≤ 0.25
8,KVMY,≤ 0.25
9,ETGL,≤ 0.25
10,KGRY,≤ 0.25
11,EPWV,≤ 0.25
12,RLQC,≤ 0.25
13,KANK,≤ 0.25
14,SKIN,≤ 0.25
15,TIRV,≤ 0.25
16,TNNR,≤ 0.25
17,KNHS,≤ 0.25
18,TRRY,0.321
19,NSFS,≤ 0.25
20,IGLF,≤ 0.25
21,YAYR,≤ 0.25
22,KRLV,≤ 0.25
23,GNLH,1.09
24,FPSA,≤ 0.25
25,VRSL,≤ 0.25
26,QCLY,≤ 0.25

row,Variant,enrichment ratio
1,GWPF,≤ 0.25
2,QFFG,0.984
3,KFER,≤ 0.25
4,MTQS,≤ 0.25
5,IQNI,≤ 0.25
6,SIQT,≤ 0.25
7,MTFY,9.39
8,VDWS,≤ 0.25
9,KMRA,≤ 0.25
10,GSTL,6.96
11,SDLK,≤ 0.25
12,MEFS,11.1
13,WRKL,≤ 0.25
14,VMIK,≤ 0.25
15,FPCP,≤ 0.25
16,PNQY,≤ 0.25
17,AVGA,≤ 0.25
18,PDGV,≤ 0.25
19,RQFC,≤ 0.25
20,RTLG,≤ 0.25
21,MGIT,≤ 0.25
22,NFHT,≤ 0.25
23,FFSV,≤ 0.25
